Source: US11873320B2 (REATA PHARMACEUTICALS HOLDINGS, LLC, priority 2013, dated 2024)
Read-outs that look alike come from different tables or passages of the source.

What was measured:
[1] = test system: bleomycin-induced pulmonary fibrosis; assay: bleomycin-induced pulmonary fibrosis in mice; format: in vivo, mouse; conditions: QD×39, C57BL/6 mice
Description: Bleomycin was given on Day 0. Daily weights were measured. BAL fluid cell counts were obtained at sacrifice. […] No significant improvement in chronic inflammation score, interstitial fibrosis, or number of fibrotic foci was observed.
On the last day of dosing, lung tissue was collected and histology was performed to evaluate the extent of inflammation and interstitial fibrosis. […] Additional evaluation was performed using a rat model of pulmonary fibrosis that has been extensively characterized at the Lovelace Respiratory Research Institute. In this study, rats were challenged with bleomycin or saline by intratracheal administration on day 0. […] For the remaining animals, bronchoalveolar lavage fluid was collected on day 28 for assessment of pro-inflammatory infiltrates, and lung tissue was analyzed for hydroxyproline levels and histopathology. Challenge with bleomycin sulfate induced a substantial release of neutrophils and an increase in soluble collagen in the BALF, as well as an increase in hydroxyproline in the lung.

[2] = test system: C57BL/6 mice; conditions: for brain exposure over in vitro IC50 for NO induction / lung exposure over in vitro IC50 for NO induction: 4 hours after final dose

CC1(C)CC[C@]2(NC(=O)C(C)(F)F)CC[C@]3(C)[C@H](C(=O)C=C4[C@@]5(C)C=C(C#N)C(=O)C(C)(C)[C@@H]5CC[C@]43C)[C@@H]2C1 [RTA 408, N-((4aS,6aR,6bS,8aR,12aS,14aR,14bS)-11-cyano-2,2,6a,6b,9,9,12a-heptamethyl-10,14-dioxo-1,2,3,4,4a,5,6,6a,6b,7,8,8a,9,10,12a,14,14a,14b-octadecahydropicen-4a-yl)-2,2-difluoropropanamide]
BAL fluid inflammatory infiltrate [1]: notable reduction in inflammatory infiltrate
ALP (U/L) ([2]; 10 mg/kg PO QD×14): 131 U/L
ALT (U/L) ([2]; 10 mg/kg PO QD×14): 39 U/L
AST (U/L) ([2]; 10 mg/kg PO QD×14): 98 U/L
BUN ([2]; 10 mg/kg PO QD×14): 15 mg/dL
Cr ([2]; 10 mg/kg PO QD×14): <0.2 mg/dL
Glu ([2]; 10 mg/kg PO QD×14): 307 mg/dL
Tot Bil ([2]; 10 mg/kg PO QD×14): <0.2 mg/dL
brain exposure over in vitro IC50 for NO induction ([2]; 10 mg/kg): 29 fold
lung exposure over in vitro IC50 for NO induction ([2]; 10 mg/kg): 55 fold
ALP (U/L) ([2]; 30 mg/kg PO QD×14): 110 U/L
ALT (U/L) ([2]; 30 mg/kg PO QD×14): 63 U/L
AST (U/L) ([2]; 30 mg/kg PO QD×14): 147 U/L
BUN ([2]; 30 mg/kg PO QD×14): 15 mg/dL
Cr ([2]; 30 mg/kg PO QD×14): <0.2 mg/dL
Glu ([2]; 30 mg/kg PO QD×14): 285 mg/dL
Tot Bil ([2]; 30 mg/kg PO QD×14): <0.2 mg/dL
ALP (U/L) ([2]; 100 mg/kg PO QD×14): 98 U/L
ALT (U/L) ([2]; 100 mg/kg PO QD×14): 91 U/L
AST (U/L) ([2]; 100 mg/kg PO QD×14): 167 U/L
BUN ([2]; 100 mg/kg PO QD×14): 15 mg/dL
Cr ([2]; 100 mg/kg PO QD×14): <0.2 mg/dL
Glu ([2]; 100 mg/kg PO QD×14): 273 mg/dL
Tot Bil ([2]; 100 mg/kg PO QD×14): <0.2 mg/dL
brain exposure over in vitro IC50 for NO induction ([2]; 100 mg/kg): 541 fold
lung exposure over in vitro IC50 for NO induction ([2]; 100 mg/kg): 1138 fold
liver NQO1 and GST enzyme activities ([2]; PO QD×14): induced in a dose dependent manner
liver mRNA expression of Nrf2 target genes ([2]; PO QD×14): Substantial increases in mRNA expression
survival ([2]; PO QD×14): All animals survived to day 14
toxicity based on clinical chemistries ([2]; PO QD×14): no evidence of toxicity at any dose
weight changes compared to the vehicle group ([2]; PO QD×14): No significant weight changes
